These are yes or no findings as the source states them, for the method shown. For some of these results: Binding seen in cells or lysates may run through a third protein. Some entries that bind do so weakly or less than the wild type. For some of these results: Sequences can lack the tags named with a protein.

Protein sequences, listed by entry. Tags and fused reporters are not part of them.
UniProt Q09472: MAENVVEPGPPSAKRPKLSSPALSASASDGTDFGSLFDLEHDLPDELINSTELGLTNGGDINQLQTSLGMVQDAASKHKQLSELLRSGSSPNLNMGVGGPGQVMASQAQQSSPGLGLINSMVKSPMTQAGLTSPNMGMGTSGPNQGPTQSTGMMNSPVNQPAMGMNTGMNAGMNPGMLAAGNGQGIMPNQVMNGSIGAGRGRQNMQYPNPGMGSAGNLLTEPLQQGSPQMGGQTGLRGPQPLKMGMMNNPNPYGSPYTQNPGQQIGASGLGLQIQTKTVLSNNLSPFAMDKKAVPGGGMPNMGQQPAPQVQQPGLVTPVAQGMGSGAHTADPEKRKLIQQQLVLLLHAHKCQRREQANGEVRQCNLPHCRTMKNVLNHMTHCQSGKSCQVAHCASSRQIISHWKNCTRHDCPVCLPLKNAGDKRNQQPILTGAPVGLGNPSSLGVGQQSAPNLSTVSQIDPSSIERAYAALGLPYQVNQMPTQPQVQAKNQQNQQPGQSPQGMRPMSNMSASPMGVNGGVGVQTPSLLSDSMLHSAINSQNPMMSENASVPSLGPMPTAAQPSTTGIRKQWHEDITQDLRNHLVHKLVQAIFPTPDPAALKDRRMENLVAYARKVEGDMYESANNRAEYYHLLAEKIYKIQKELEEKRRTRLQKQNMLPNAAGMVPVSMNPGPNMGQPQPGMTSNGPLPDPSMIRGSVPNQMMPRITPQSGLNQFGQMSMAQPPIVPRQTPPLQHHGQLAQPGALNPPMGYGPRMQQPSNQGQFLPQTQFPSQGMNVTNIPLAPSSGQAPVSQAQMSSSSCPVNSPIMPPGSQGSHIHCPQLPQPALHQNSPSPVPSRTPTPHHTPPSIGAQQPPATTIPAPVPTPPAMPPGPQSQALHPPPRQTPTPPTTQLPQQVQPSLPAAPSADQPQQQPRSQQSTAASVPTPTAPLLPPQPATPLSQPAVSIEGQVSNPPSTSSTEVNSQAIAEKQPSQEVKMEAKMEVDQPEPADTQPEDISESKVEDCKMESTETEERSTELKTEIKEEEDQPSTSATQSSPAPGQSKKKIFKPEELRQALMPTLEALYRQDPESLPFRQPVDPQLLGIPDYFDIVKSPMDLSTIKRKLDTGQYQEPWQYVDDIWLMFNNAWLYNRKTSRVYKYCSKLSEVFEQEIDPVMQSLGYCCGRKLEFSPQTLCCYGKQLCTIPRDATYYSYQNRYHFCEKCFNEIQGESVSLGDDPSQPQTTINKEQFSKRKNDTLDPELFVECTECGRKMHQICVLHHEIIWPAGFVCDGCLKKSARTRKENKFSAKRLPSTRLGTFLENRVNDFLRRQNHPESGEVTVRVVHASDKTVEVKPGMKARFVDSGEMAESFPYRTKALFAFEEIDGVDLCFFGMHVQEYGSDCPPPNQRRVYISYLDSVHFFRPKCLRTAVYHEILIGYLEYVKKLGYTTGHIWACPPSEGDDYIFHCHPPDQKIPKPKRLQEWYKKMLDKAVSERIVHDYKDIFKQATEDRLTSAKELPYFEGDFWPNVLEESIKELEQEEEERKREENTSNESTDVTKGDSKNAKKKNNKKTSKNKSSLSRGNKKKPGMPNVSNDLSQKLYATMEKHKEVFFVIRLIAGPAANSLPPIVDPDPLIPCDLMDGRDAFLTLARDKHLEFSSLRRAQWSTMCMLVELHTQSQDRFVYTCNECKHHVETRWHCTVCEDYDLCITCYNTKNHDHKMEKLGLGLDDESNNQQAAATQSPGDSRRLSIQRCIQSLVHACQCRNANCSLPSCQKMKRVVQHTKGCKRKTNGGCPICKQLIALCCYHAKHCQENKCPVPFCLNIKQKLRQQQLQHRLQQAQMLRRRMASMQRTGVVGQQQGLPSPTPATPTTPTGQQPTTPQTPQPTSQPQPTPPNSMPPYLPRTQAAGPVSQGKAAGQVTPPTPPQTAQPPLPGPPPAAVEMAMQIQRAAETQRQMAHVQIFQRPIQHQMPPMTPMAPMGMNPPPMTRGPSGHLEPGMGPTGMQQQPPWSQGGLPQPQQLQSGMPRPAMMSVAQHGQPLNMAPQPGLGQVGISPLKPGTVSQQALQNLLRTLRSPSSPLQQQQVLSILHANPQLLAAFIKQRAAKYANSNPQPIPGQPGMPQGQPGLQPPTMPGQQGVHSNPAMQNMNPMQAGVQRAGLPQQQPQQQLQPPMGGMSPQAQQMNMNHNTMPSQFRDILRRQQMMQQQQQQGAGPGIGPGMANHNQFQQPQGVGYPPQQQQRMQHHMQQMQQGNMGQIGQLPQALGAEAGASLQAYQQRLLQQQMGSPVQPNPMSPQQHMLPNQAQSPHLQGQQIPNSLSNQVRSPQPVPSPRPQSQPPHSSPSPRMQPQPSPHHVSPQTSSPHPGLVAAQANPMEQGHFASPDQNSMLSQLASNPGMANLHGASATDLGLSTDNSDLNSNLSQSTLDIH

For one assay, the target named is T1, MYC-tagged DEK (UniProt P35659).
T1 sequence: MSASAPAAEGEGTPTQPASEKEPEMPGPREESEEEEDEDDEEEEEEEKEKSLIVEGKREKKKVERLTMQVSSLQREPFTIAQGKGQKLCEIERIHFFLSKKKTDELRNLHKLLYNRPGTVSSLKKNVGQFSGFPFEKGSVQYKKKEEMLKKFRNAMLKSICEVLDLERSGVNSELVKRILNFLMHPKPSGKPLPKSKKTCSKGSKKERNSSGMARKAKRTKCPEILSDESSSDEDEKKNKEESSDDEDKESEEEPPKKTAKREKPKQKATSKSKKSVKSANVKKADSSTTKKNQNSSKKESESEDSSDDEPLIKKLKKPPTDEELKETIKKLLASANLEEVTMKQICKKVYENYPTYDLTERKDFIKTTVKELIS
As to the kind of experiment: co-IP; HEK293T cells cotransfected with FLAG- and MYC-tagged proteins; lysates immunoprecipitated with anti-FLAG or anti-MYC, immunoblot. On the technique in general: Immunoblotting shows a protein as a band on a membrane.

Assay [1] addresses T2, FLAG-tagged DEK (UniProt P35659).
T2 sequence: T1 sequence
As to the kind of experiment: co-IP; co-IP with re-IP; HEK293T cotransfected with MYC-HIF-1α, FLAG-DEK and HA-p300; 1st IP anti-FLAG, eluted with FLAG peptide, re-IP with anti-Myc or normal IgG.

The target in the next assay is T3, GST-DEK (UniProt P35659).
T3 sequence: T1 sequence
As to the kind of experiment: pull-down; GST pull-down; purified His-tagged HIF-1α incubated with purified GST-DEK or GST beads; immunoblot with anti-His; both purified.

Another assay addresses T4, FLAG-tagged DEK (1-187) (UniProt P35659).
T4 sequence: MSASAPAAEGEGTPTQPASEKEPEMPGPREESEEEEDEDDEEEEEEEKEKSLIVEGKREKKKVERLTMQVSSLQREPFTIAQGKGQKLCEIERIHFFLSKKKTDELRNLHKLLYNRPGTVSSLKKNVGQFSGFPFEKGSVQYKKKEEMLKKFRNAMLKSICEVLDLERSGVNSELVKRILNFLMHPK
As to the kind of experiment: co-IP; HEK293T cells cotransfected with FLAG- and MYC-tagged proteins; lysates immunoprecipitated with anti-FLAG or anti-MYC, immunoblot.

In assay [2] the target is T5, FLAG-tagged DEK (188-375) (UniProt P35659).
T5 sequence: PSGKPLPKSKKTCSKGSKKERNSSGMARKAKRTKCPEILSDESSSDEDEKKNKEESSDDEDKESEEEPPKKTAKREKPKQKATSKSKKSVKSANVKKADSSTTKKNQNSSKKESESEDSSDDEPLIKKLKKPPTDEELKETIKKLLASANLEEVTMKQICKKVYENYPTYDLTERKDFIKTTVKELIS
The description is as above.

For assay [3], the target named is T2, FLAG-tagged DEK. The assay is described as above.
In assay [4] the target is T6, endogenous DEK (human (endogenous in MCF-7)) (UniProt P35659).
T6 sequence: T1 sequence
As to the kind of experiment: co-IP; reciprocal co-IP of endogenous proteins in MCF-7 cells under normoxic or hypoxic conditions for 24 h; antibodies against DEK, HIF-1α or p300.

Assay [5] deals with T6, endogenous DEK (human (endogenous in MCF-7)). As to the kind of experiment: re-ChIP; MCF-7 cells, hypoxia 24 h; sequential chromatin immunoprecipitation for DEK and HIF-1α, real-time PCR of the HRE and DRE1 sites of the VEGF promoter.
For assay [6], the target named is FLAG-tagged HIF-1α (1-166) (UniProt Q16665). As to the kind of experiment: co-IP; HEK293T cells cotransfected with FLAG- and MYC-tagged proteins; lysates immunoprecipitated with anti-FLAG or anti-MYC, immunoblot.
Assay [7] concerns the target FLAG-tagged HIF-1α (167-481) (UniProt Q16665). The description is as above.
Assay [8] concerns the target FLAG-tagged HIF-1α (482-826) (UniProt Q16665). The description is as above.

Consider “FLAG-tagged p300 (from UniProt Q09472 1-2414)”, for which the binding entry with MYC-tagged DEK is “binds”.

For the molecule “HA-tagged p300 (from UniProt Q09472 1-2414)”, in the assay with FLAG-tagged DEK [1], the binding result is listed as “binds”.

On to “His-tagged HIF-1α (from UniProt Q16665 1-826)”, for which the binding result with GST-DEK is “binds”.

“MYC-tagged HIF-1α (from UniProt Q16665 1-826)”: the binding result is “no binding” with FLAG-tagged DEK (1-187), “binds” in [2], “binds” in the assay with FLAG-tagged DEK [3] and “binds” with FLAG-tagged DEK [1].

As to “endogenous HIF-1α (from UniProt Q16665 1-826)”, the binding result in assay [4] and in assay [5] was “binds” throughout.

Take “endogenous p300 (from UniProt Q09472 1-2414)”: the binding entry in assay [4] is on record as “binds”.

B1: MYC-tagged DEK (protein, UniProt P35659 1-375)
chain: T1 sequence
On to B1, for which the binding result in assay [6] is recorded as “no binding”; in assay [7], “binds”; in assay [8], “no binding”.

For the origin of these results see PMC5029660, “The DEK oncogene activates VEGF expression and promotes tumor angiogenesis and growth in HIF-1α-dependent and -independent manners”.
